# PubChem BioAssay (NCI)
#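 Following 48 hours of exposure in 96-well plates, responses at five concentrations were used to interpolate endpoints linearly. Here, GI50 denotes the concentration required for 50% inhibition of growth. TGI is the concentration that stops growth completely.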
# Tested on: NCI-H322M lung
# Assay: DTP human tumour cell line panel, 48 h
Structure (SMILES),GI50,TGI
CC12CCC3(CCC(=O)NCCCNc4ccnc5cc(Cl)ccc45)[C@@](C)(OO[C@]3(C)O1)O2,6.52 µM,> 25.5 µM
N#CC1=C(c2cccs2)Nc2c(c(-c3ccccc3)nn2-c2ccccc2)C12C(=O)Nc1ccccc12 (stereo not given),38.7 µM,> 100 µM
C=CC[Se]C(=O)c1cncc(C(=O)[Se]CC=C)c1,0.298 µM,1.17 µM
Cc1ccc(Nc2nnc(-c3c[nH]c4ccccc34)o2)c(C)c1,1.62 µM,> 100 µM
CN(C)CCOc1ccc(C(=O)C2[C@H](c3ccc(Cl)cc3)[C@@H](c3ccccc3)NC23C(=O)Nc2ccc(Cl)cc23)cc1 (stereo not given in full),13.2 µM,26 µM
